Measurements: PubChem BioAssay AID488969 (Vanderbilt High Throughput Screening Facility, 2010)
Over roughly 110,000 compounds, “z-score” has its median near -0.1; the highest 2% begin near 2. Some of the results follow. Non-standard residues stand in square brackets, D forms with d. Residues, ends and D or L forms follow the SMILES beside them. ξ: configuration not given here. *: point of attachment. Piv = CC(C)(C)C(=O)*; ξNva = CCCC(N)C(=O)O

target: Metabotropic glutamate receptor 8 (Rattus norvegicus) (UniProt P70579); assay: mGluR8 Gi/Go-coupled signaling modulation – cell-based, rat, thallium flux, HTS, primary screen (AID 488969); conditions: HEK293 rat mGluR8, GIRK (G protein-gated inwardly rectifying potassium channel) thallium flux, FluoZin2; at 10 µM; stronger effect = higher value; submaximal glutamate (EC20) added with thallium
UniProt P70579, sequence (P70579 whole entry, looked up): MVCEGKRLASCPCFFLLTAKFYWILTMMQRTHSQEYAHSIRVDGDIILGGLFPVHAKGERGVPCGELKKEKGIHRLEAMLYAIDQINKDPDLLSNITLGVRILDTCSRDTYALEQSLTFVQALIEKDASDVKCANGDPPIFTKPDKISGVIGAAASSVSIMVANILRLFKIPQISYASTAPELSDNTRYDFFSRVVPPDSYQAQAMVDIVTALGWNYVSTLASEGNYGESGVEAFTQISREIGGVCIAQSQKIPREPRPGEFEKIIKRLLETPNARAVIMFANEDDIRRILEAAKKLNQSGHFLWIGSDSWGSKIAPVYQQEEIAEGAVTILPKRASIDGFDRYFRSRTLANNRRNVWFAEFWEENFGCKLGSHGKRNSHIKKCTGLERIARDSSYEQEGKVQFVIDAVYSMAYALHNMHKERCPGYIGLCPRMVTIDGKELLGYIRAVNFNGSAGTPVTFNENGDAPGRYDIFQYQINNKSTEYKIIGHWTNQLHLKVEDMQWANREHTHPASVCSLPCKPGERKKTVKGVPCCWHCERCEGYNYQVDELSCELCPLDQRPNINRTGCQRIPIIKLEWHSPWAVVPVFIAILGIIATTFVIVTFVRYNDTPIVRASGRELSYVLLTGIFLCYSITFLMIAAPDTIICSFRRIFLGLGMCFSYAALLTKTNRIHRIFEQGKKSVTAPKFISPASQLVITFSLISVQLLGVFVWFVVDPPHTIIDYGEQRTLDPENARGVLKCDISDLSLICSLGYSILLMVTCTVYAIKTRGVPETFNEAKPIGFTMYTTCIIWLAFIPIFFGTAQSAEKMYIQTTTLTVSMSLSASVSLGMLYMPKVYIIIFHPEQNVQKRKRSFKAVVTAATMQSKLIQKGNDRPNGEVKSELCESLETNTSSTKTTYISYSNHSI

| SMILES | z-score |
| --- | --- |
| COc1ccc(-c2ccnc(SCC(=O)c3ccc(Br)cc3)n2)cc1 | -0.0451 |
| CCOC(=O)Nc1ccc(NC(=O)OCC)cc1 | -0.381 |
| COc1ccc(NC(=S)Nc2ccc(S(=O)(=O)N3CCOCC3)cc2)c(OC)c1 | 0.108 |
| O=C(c1cccc(Br)c1)N1CCN(C(=O)c2cccc(Br)c2)CC1 | 0.769 |
| CSc1sc2ccccc2[n+]1CCCS(=O)(=O)[O-] | -0.661 |
| O=C(CSc1nnc(CNC(=O)c2ccccc2F)o1)c1ccc(Cl)cc1 | -0.177 |
| CCOc1ccc(-n2cc(-c3ccccc3)c3c(SC(C)C(=O)OC)ncnc32)cc1 (configuration not stated) | -0.101 |
| CSc1nnc2c(n1)c(C)nn2-c1cccc(C)c1 | 0.3 |
| C=CCOc1ccc(CNC(C)(C)CO)cc1OCC | -0.0196 |
| Cc1ccc(C(=O)CSc2ncnc3sc4c(c23)CCCC4)cc1 | 1.34 |
| COC(=O)c1c(F)c(F)c(NCCO)c(F)c1F | 0.592 |
| COc1ccc(/C(O)=C2/C(=O)C(=O)N(CCN(C)C)C2c2ccc(C)cc2)cc1Cl (configuration not stated) | -0.336 |
| O=C(Nc1ccsc1C(=O)NC1CCCCC1)c1ccccc1 | -0.315 |
| COc1ccc(C(=O)N(CN2CCCC2=O)c2ccccc2OC)cc1OC | 0.587 |
| CC(C)Cn1c(Cc2ccccc2)n[nH]c1=S | -0.0325 |
| Cc1ccc(OC(=O)c2sc(Cl)nc2C)cc1C | -0.251 |
| CCOc1ccc(N=CC2=C(O)CC(C)(C)CC2=O)cc1 | 0.649 |
| CCOC(=O)C(Sc1nn(C)c(=S)s1)C(C)=O (configuration not stated) | -0.128 |
| Cc1cc(C)c(C)c(S(=O)(=O)N2CCC(C(=O)OCC(=O)N3c4ccccc4NC(=O)C3(C)C)CC2)c1C | 0.597 |
| CN1CCN(c2ccccc2NC(=O)c2ccc(-c3cccc([N+](=O)[O-])c3)o2)CC1 | -0.00188 |
| Cc1cc(C)nc(NS(=O)(=O)c2ccc(N/C=C/C(=O)c3ccc(Cl)cc3)cc2)n1 | -0.43 |
| COc1ccc(CN(C)CC(=O)Nc2cc3oc4ccccc4c3cc2OC)c(OC)c1 | -0.191 |
| CC1CCN(c2ccc(/C=C(\C#N)c3nn(-c4ccccc4)c(N)c3C#N)cc2[N+](=O)[O-])CC1 | -0.154 |

| SMILES | z-score |
| --- | --- |
| CC1=CC=CC2=NC(=O)CC(C)(C(=O)N(CC(=O)NC(C)C)C3CCCC3)N12 (configuration not stated) | -0.311 |
| C=CCn1c(C(C)NC(=O)CCC)nc2ccccc21 (configuration not stated) | 1.06 |
| C/C(CC(=O)Nc1cc(C)ccn1)=N\NC(=O)COc1cccc(C)c1 | 0.0652 |
| O=C(/C=C/c1ccc(Cl)cc1Cl)NCc1ccncc1 | 0.902 |
| COC(=O)c1cc2sccc2n1Cc1ccc(C)cc1 | 0.14 |
| Cc1ccc(OCc2ccc(C(=O)N3CCOCC3)cc2)cc1C | 0.253 |
| CCOC(=O)C(C)n1cnc2c(nnn2-c2cccc(Cl)c2)c1=O (configuration not stated) | -0.127 |
| COc1ccc(N2CC(O)=C(c3n(C)c4ccccc4[n+]3C)C2=N)cc1 | -0.118 |
| O=C(NCc1ccc(F)cc1)C1CCC(=O)N1CCc1ccccc1 (configuration not stated) | -0.33 |
| CSc1nsc(SC)c1NC(=O)OCCc1ccccn1 | 0.0478 |
| CCc1ccc(S(=O)(=O)NCc2csc(C)n2)s1 | 0.347 |
| COCCN(C(=S)Nc1cccc(C)c1)C(C)c1cccs1 (configuration not stated) | -0.946 |
| Cn1c(=O)c2c(SCC(=O)N3CCOCC3)nc(C3CC3)nc2n(C)c1=O | -0.312 |
| CCc1ccc(C2=NN(S(C)(=O)=O)C(c3cccs3)C2)cc1 (configuration not stated) | -0.336 |
| COc1cccc2sc(NC(=O)c3ccc(S(=O)(=O)N4CCOCC4)cc3)nc12 | 0.875 |
| CC(=O)c1cccc(N(CC(=O)O)S(C)(=O)=O)c1 | 0.52 |
| O=C(CSc1ccc2nnc(-c3cccnc3)n2n1)NCc1ccc2c(c1)OCO2 | 0.75 |
| CC(C)C(=O)NC(Nc1ccccc1F)C(Cl)(Cl)Cl (configuration not stated) | -0.185 |
| CC(OC(=O)CCCc1nc2ccccc2s1)C(N)=O (configuration not stated) | -0.282 |
| COc1ccc(-c2csc(Nc3cccnc3)n2)cc1 | -0.607 |
| Nc1c2c(=O)oc(-c3ccccc3)cc2nn1-c1ccccc1 | -0.396 |
| Cc1nn(-c2ccccc2)c2c1C1(C(=O)Nc3ccccc31)N1C(=N2)Sc2ccccc21 (configuration not stated) | -0.00358 |
| O=C(CCSCc1ccc(Cl)cc1)NCCc1ccccc1 | -0.0466 |

| SMILES | z-score |
| --- | --- |
| O=C(CSc1nnc(-c2cccs2)o1)N1CCCc2ccccc21 | -0.194 |
| COC(=O)C(O)(CC(=O)Nc1cc(OC)c(OC)c(OC)c1)C(F)(F)F (configuration not stated) | 0.249 |
| COc1ccc(CC(=O)OCC(=O)NC(=O)NC2CCCCC2)cc1 | -0.846 |
| Cc1noc(C)c1C(=O)Nc1ccc(F)cc1F | -0.305 |
| COc1ccc(N2C(=O)CC(N3CCC(C(N)=O)CC3)C2=O)cc1 (configuration not stated) | -0.355 |
| O=C(c1ccco1)N1CCN(C(=O)C2c3ccccc3Oc3ccccc32)CC1 | 0.889 |
| COc1ccc(S(=O)(=O)/N=C2/NC(=O)/C(=C/c3ccco3)S2)cc1 | -0.0953 |
| CC(C)c1onc(C(=O)N2CCCCC2C)c1[N+](=O)[O-] (configuration not stated) | -0.0403 |
| c1ccc(C2=Nc3ccccc3SC2c2nc3ccccc3[nH]2)cc1 (configuration not stated) | -0.337 |
| COC(=O)c1ccc(OCC(=O)c2cccc(OC)c2)cc1 | -0.425 |
| Cc1ccc(CN2CCN(c3ccccn3)CC2)s1 | 0.0885 |
| COC(=O)c1sccc1NC(=O)CCC1CCCCC1 | 0.077 |
| Cc1oc(C)c(C(=O)Nc2ccc(CC(=O)O)cc2)c1C(=O)Nc1ccc(CC(=O)O)cc1 | -0.00891 |
| CCc1ccc(C(=O)CCC2CCCCC2=O)cc1 (configuration not stated) | 0.096 |
| O=C(O)c1cccc(N/N=C/c2sc(N3CCOCC3)nc2-c2ccccc2)c1 | -0.235 |
| O=C(CCN1CCN(c2ccc(F)cc2)CC1)Nc1ccc(F)cc1 | -0.166 |
| Cc1ccc(-c2nn(C)c(=O)c3ccccc23)cc1CNC(=O)CSc1nc2ccccc2o1 | -0.317 |
| CCOC(=O)c1c(-c2ccccc2)csc1NC(=O)C1CCCO1 (configuration not stated) | -0.568 |
| Cc1cc2occ(CC(=O)NCc3cccs3)c2cc1C(C)C | -0.343 |
| Cc1cc(Br)ccc1NC(=O)CNC(=O)CSc1n[nH]c(N)n1 | 1.01 |
| O=C(Nc1ccc(Cl)cc1C(=O)Nc1ccncc1)c1ccco1 | -0.0985 |
| COc1cc(OC)nc(NC(=O)CCl)n1 | 0.431 |
| Cc1c(C(=O)O)oc2ccc(S(=O)(=O)N3CCCCC3C(=O)O)cc12 (configuration not stated) | -0.577 |

| SMILES | z-score |
| --- | --- |
| CC(O)c1nc2ccccc2n1CCOc1ccccc1 (configuration not stated) | -0.136 |
| O=C(NNC(=S)Nc1ccc(Br)cc1Cl)c1ccco1 | 0.791 |
| N#CC(c1ccccc1)(c1ncc(C(F)(F)F)cc1Cl)N1CCOCC1 (configuration not stated) | -0.239 |
| Cc1ccc(C(=O)CCNc2ccc(Br)cc2)o1 | 0.112 |
| COc1ccc(-c2nnc(SCC(=O)N3CCOCC3)n2C)cc1OC | -0.0175 |
| Cc1ccc(CNC(=O)CCNC(=O)Cn2ccc3ccccc3c2=O)o1 | 0.101 |
| CCCC(NC(=O)CNC(=O)C(C)(C)C)C(=O)O (stereo not drawn) (Piv-Gly-[ξNva]-OH) | -0.0706 |
| CC(=O)NS(=O)(=O)c1ccc(NC(=O)c2cc(-c3ccc(C)c(C)c3)nc3ccccc23)cc1 | 0.117 |
| O=C(O)c1ccccc1C(=O)NNc1ccc(Cl)cc1 | -0.0989 |
| COc1ccc(-c2nc(CSCC(=O)NCCC3=CCCCC3)c(C)o2)cc1OC | -0.246 |
| Cc1ccc(NC(C(N)=O)c2c(C)[nH]c(=O)[nH]c2=O)cc1 (configuration not stated) | 0.0671 |
| CC(=O)C1=C(C)NC(SCSc2ccccc2)=C(C#N)C1c1cccnc1 (configuration not stated) | -0.0373 |
| CCN(CCNC(=O)CCCn1nc(C)n2c(cc3sccc32)c1=O)c1ccccc1 | -0.512 |
| CCCCNCc1cc(OC)c(OCC(N)=O)cc1Br | -0.0477 |
| Cc1nn(Cc2ccccc2)c(C)c1NC(=O)c1cc(-c2ccco2)on1 | 0.0399 |
| N#CCSc1nnc(Nc2ccccc2)s1 | 0.314 |
| COc1ccc(NC(=O)CNS(=O)(=O)c2ccc3nc(C)sc3c2)c(OC)c1 | -0.348 |
| O=C(N/N=C/c1ccc(Br)s1)c1ccccc1[N+](=O)[O-] | -0.0331 |
| Cc1cc(C)n2cc(CSc3nnc(SCc4cn5c(C)cc(C)nc5n4)s3)nc2n1 | -0.116 |
| Cc1cc(S(=O)(=O)N2CCN=C2c2ccccc2)ccc1F | 0.13 |
| O=C(NCc1cn2ccsc2n1)c1c(F)cccc1Cl | -0.416 |
| COc1cc(-c2cc(C(=O)O)c3cc4c(cc3n2)OCCO4)cc(OC)c1OC | -0.103 |
| COc1ccc(OC)c(NC(=O)C2CC(=O)n3ncnc3N2)c1 (configuration not stated) | -0.244 |

| SMILES | z-score |
| --- | --- |
| Cc1ccc(S(=O)(=O)NCc2ccc(C(=O)N3CCN(c4ccccn4)CC3)cc2)cc1 | -2.02 |
| O=Cc1cn(-c2ccccc2)nc1-c1cc2c(ccc3ccccc32)oc1=O | -0.427 |
| CN(C)c1oc(-c2ccccc2Cl)nc1S(=O)(=O)c1ccccc1 | -0.418 |
| Cc1ccccc1NC(=O)c1ccc(NS(=O)(=O)c2cc(C(C)(C)C)cc(C)c2C)cc1 | -0.0521 |
| CC(C)NS(=O)(=O)c1ccc(OCC(=O)NCCC2=CCCCC2)cc1 | -0.342 |
| O=C(COc1cccc(Oc2ccccc2)c1)Nc1ccc(SC(F)F)cc1 | -0.269 |
| Cc1ccc(S(=O)(=O)/C(C#N)=C/c2c(N3CC(C)OC(C)C3)nc3c(C)cccn3c2=O)cc1 (configuration not stated) | -0.128 |
| CCS(=O)(=O)N1CCC(C(=O)NCc2cc(OC)ccc2OC)CC1 | -0.0786 |
| COc1ccc(Cn2c(-c3ccco3)nc3oc4cc(OC)ccc4c(=O)c3c2=O)cc1 | 2.22 |
| COc1ccc2c(C)cc(SCC(=O)N3CCOCC3)nc2c1 | 0.247 |
| COC(=O)CSc1nc(N2CCCCC2)c2c(c1C#N)CCCC2 | -0.221 |
| N#Cc1cn(Cc2ccccc2)c2ccccc12 | 0.308 |
| Cc1cccc(C)c1NC(=O)COC(=O)CCc1ccc(S(=O)(=O)N2CCCCC2)cc1 | -0.423 |
| O=C(O)c1cc(-c2ccco2)[nH]n1 | 0.209 |
| CNC(=O)C1CCN(C(=O)c2ccc(-c3ccccc3)cc2)CC1 | 0.628 |
| CCCN(CCC)C(=O)Cn1c(=O)n(CCCCCC(=O)Nc2ccccc2)c(=O)c2sccc21 | 0.509 |
| CC(C)CCNC(=O)COc1ccc2c(c1)C(=O)CC(C)(C)O2 | -0.219 |
| CCOC(=O)CCCNC(=O)CN1C(=O)NC(CCc2ccccc2)C1=O (configuration not stated) | -0.365 |
| O=c1oc2ccccc2n1CSc1nc2ccccc2s1 | -0.145 |
| COC(CNC(=O)c1cccc2c1C(=O)N(Cc1cccnc1)C2)OC | 0.0156 |
